B1: CTLA4 Fc bIgG1aWin (Fc fusion, canine)
chain: [sequence of about 120 residues not given]DPRCKTTCDCCPPPEAAGAPSVFIFPPKPKDTLTISGTPEVTCVVVDVGHDDPEVKFSWFVDDVEVNTATTKPREEQFNSTYRVVSALRIQHQDWTGGKEFKCKVHNEGLPAPIVRTISRTKGPAREPQVYVLAPPQEELSKSTVSLTCMVTSFYPDYIAVEWQRNGQPESEDKYGTTPPQLDADGSYFLYSRLRVDRNSWQEGDTYTCVVMHEALHNHYTQKSTSKSAGK
B2: CTLA4 Fc bIgG1aWinSS (Fc fusion, canine)
chain: [sequence of about 120 residues not given]DPRCKTTCDCCPPPEAAGAPSVFIFPPKPKDTLTISGTPEVTCVVVDVGHDDPEVKFSWFVDDVEVNTATTKPREEQFNSTYRVVSALRIQHQDWTGGKEFKCKVHNEGLPSSIVRTISRTKGPAREPQVYVLAPPQEELSKSTVSLTCMVTSFYPDYIAVEWQRNGQPESEDKYGTTPPQLDADGSYFLYSRLRVDRNSWQEGDTYTCVVMHEALHNHYTQKSTSKSAGK

Target: Fc gamma receptors on bovine alveolar macrophages
Assay: cell-based or functional assay

| Binder | ADCP EC50 Value [µg/mL] |
| --- | --- |
| B1 | 0.002 |
| B2 | 0.041 |

Source: patent publication US20230416410A1
